Test results published in article PMC6593972, “Two-Step Activation Mechanism of the ClpB Disaggregase for Sequential Substrate Threading by the Main ATPase Motor” (Cell Reports, 2019).

Molecular target: the molecule itself
Experiment: cryo-EM structure; ClpB hexamer with a 20-fold molar excess of casein, 10 min at room temperature in 25 mM Tris-HCl pH 7.4, 25 mM KCl, 10 mM MgCl2, 2 mM ATPγS, 1 mM DTT; single-particle cryo-EM

B1: ClpB-DWB (natural protein)
chain: not shown
notes: ClpB, bacterial disaggregase, with the double Walker B mutations E279A/E678A; also called ClpB-E279A/E678A; double Walker B mutant; source: E. coli ΔclpB::kan cells, purified (Ni-IDA, size exclusion chromatography Superdex S200)
binding result: binds
